From the supplement of paper PMC8728848
This is one part of the list.

Columns and labels:
Assay in all cases: glycan array binding signal (z-score within array); higher = stronger binding
Conditions in all cases: glycan notation: IUPAC condensed, linker removed
Gal(a1-3)Gal(b1-4)GlcNAc = target: Gal(a1-3)Gal(b1-4)GlcNAc
Procedure, shortened: (§1)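 The Consortium for Functional Glycomics database supplied 3228 glycan arrays, of which those lacking an available protein sequence were dropped. The binding signal, a within-array Z-score, was averaged across arrays of the same protein sequence and across linkers. Negative scores can be read as non-binding.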

[1] = target: Gal(a1-3)Gal(b1-4)GlcNAc(b1-2)Man
Procedure, shortened: as §1

[2] = target: Gal(a1-3)Gal(b1-4)GlcNAc(b1-2)Man(a1-3)[Gal(a1-3)Gal(b1-4)GlcNAc(b1-2)Man(a1-6)]Man(b1-4)GlcNAc(b1-4)GlcNAc
Procedure, shortened: as §1

[3] = target: Gal(a1-3)Gal(b1-4)GlcNAc(b1-3)GalNAc
Procedure, shortened: as §1

[4] = target: Gal(a1-3)Gal(b1-4)GlcNAc(b1-6)GalNAc
Procedure, shortened: as §1

[5] = target: Gal(a1-3)Gal(b1-4)[Fuc(a1-3)]GlcNAc
Procedure, shortened: as §1

[6] = target: Gal(a1-3)Gal(b1-4)[Fuc(a1-3)]GlcNAc(b1-2)Man(a1-3)[Gal(a1-3)Gal(b1-4)[Fuc(a1-3)]GlcNAc(b1-2)Man(a1-6)]Man(b1-4)GlcNAc(b1-4)GlcNAc
Procedure, shortened: as §1

Gal(a1-3)GalNAc = target: Gal(a1-3)GalNAc
Procedure, shortened: as §1

[7] = target: Gal(a1-3)[Gal(a1-4)]Gal(b1-4)GlcNAc
Procedure, shortened: as §1

[8] = target: Gal(a1-4)Gal(b1-3)GlcNAc(b1-2)Man(a1-3)[Gal(a1-4)Gal(b1-3)GlcNAc(b1-2)Man(a1-6)]Man(b1-4)GlcNAc(b1-4)GlcNAc
Procedure, shortened: as §1

Gal(a1-4)Gal(b1-4)Glc = target: Gal(a1-4)Gal(b1-4)Glc
Procedure, shortened: as §1

Gal(a1-4)Gal(b1-4)GlcNAc = target: Gal(a1-4)Gal(b1-4)GlcNAc
Procedure, shortened: as §1

[9] = target: Gal(a1-4)Gal(b1-4)GlcNAc(b1-2)Man(a1-3)[Gal(a1-4)Gal(b1-4)GlcNAc(b1-2)Man(a1-6)]Man(b1-4)GlcNAc(b1-4)GlcNAc
Procedure, shortened: as §1

[10] = target: Gal(a1-4)Gal(b1-4)GlcNAc(b1-3)Gal(b1-4)Glc
Procedure, shortened: as §1

Gal(a1-4)GlcNAc = target: Gal(a1-4)GlcNAc
Procedure, shortened: as §1

Gal(a1-6)Glc = target: Gal(a1-6)Glc
Procedure, shortened: as §1

Gal(b1-2)Gal = target: Gal(b1-2)Gal
Procedure, shortened: as §1

Gal(b1-3)Gal = target: Gal(b1-3)Gal
Procedure, shortened: as §1

Gal(b1-3)Gal(b1-4)GlcNAc = target: Gal(b1-3)Gal(b1-4)GlcNAc
Procedure, shortened: as §1

Gal(b1-3)GalNAc = target: Gal(b1-3)GalNAc
Procedure, shortened: as §1

[11] = target: Gal(b1-3)GalNAc(a1-3)[Fuc(a1-2)]Gal(b1-4)Glc
Procedure, shortened: as §1

[12] = target: Gal(b1-3)GalNAc(a1-3)[Fuc(a1-2)]Gal(b1-4)GlcNAc
Procedure, shortened: as §1

Gal(b1-3)GalNAc(b1-3)Gal = target: Gal(b1-3)GalNAc(b1-3)Gal
Procedure, shortened: as §1

[13] = target: Gal(b1-3)GalNAc(b1-3)Gal(a1-4)Gal(b1-4)Glc
Procedure, shortened: as §1

[14] = target: Gal(b1-3)GalNAc(b1-4)Gal(b1-4)Glc
Procedure, shortened: as §1

[15] = target: Gal(b1-3)GalNAc(b1-4)[Neu5Ac(a2-3)]Gal(b1-4)Glc
Procedure, shortened: as §1

Gal(b1-3)GlcNAc = target: Gal(b1-3)GlcNAc
Procedure, shortened: as §1

[16] = target: Gal(b1-3)GlcNAc(a1-3)Gal(b1-4)GlcNAc
Procedure, shortened: as §1

[17] = target: Gal(b1-3)GlcNAc(a1-6)Gal(b1-4)GlcNAc
Procedure, shortened: as §1

Gal(b1-3)GlcNAc(b1-2)Man = target: Gal(b1-3)GlcNAc(b1-2)Man
Procedure, shortened: as §1

[18] = target: Gal(b1-3)GlcNAc(b1-2)Man(a1-3)[Gal(b1-3)GlcNAc(b1-2)Man(a1-6)]Man(b1-4)GlcNAc(b1-4)GlcNAc
Procedure, shortened: as §1

[19] = target: Gal(b1-3)GlcNAc(b1-2)Man(a1-3)[Gal(b1-3)GlcNAc(b1-2)Man(a1-6)]Man(b1-4)GlcNAc(b1-4)[Fuc(a1-6)]GlcNAc
Procedure, shortened: as §1

[20] = target: Gal(b1-3)GlcNAc(b1-2)Man(a1-3)[GlcNAc(b1-4)][Gal(b1-3)GlcNAc(b1-2)Man(a1-6)]Man(b1-4)GlcNAc(b1-4)GlcNAc
Procedure, shortened: as §1

[21] = target: Gal(b1-3)GlcNAc(b1-2)[Gal(b1-3)GlcNAc(b1-6)]Man(a1-6)[Gal(b1-3)GlcNAc(b1-2)Man(a1-3)]Man(b1-4)GlcNAc(b1-4)GlcNAc
Procedure, shortened: as §1

[22] = target: Gal(b1-3)GlcNAc(b1-3)Gal(b1-3)GlcNAc
Procedure, shortened: as §1

[23] = target: Gal(b1-3)GlcNAc(b1-3)Gal(b1-4)Glc
Procedure, shortened: as §1

[24] = target: Gal(b1-3)GlcNAc(b1-3)Gal(b1-4)GlcNAc
Procedure, shortened: as §1

[25] = target: Gal(b1-3)GlcNAc(b1-3)Gal(b1-4)GlcNAc(b1-2)Man(a1-3)[Gal(b1-3)GlcNAc(b1-3)Gal(b1-4)GlcNAc(b1-2)Man(a1-6)]Man(b1-4)GlcNAc(b1-4)GlcNAc
Procedure, shortened: as §1

[26] = target: Gal(b1-3)GlcNAc(b1-3)Gal(b1-4)GlcNAc(b1-2)[Gal(b1-3)GlcNAc(b1-3)Gal(b1-4)GlcNAc(b1-6)]Man(a1-6)[Gal(b1-3)GlcNAc(b1-3)Gal(b1-4)GlcNAc(b1-2)Man(a1-3)]Man(b1-4)GlcNAc(b1-4)[Fuc(a1-6)]GlcNAc
Procedure, shortened: as §1

[27] = target: Gal(b1-3)GlcNAc(b1-3)Gal(b1-4)GlcNAc(b1-3)Gal(b1-4)GlcNAc(b1-2)[Gal(b1-3)GlcNAc(b1-3)Gal(b1-4)GlcNAc(b1-3)Gal(b1-4)GlcNAc(b1-6)]Man(a1-6)[Gal(b1-3)GlcNAc(b1-3)Gal(b1-4)GlcNAc(b1-3)Gal(b1-4)GlcNAc(b1-2)Man(a1-3)]Man(b1-4)GlcNAc(b1-4)[Fuc(a1-6)]GlcNAc
Procedure, shortened: as §1

[28] = target: Gal(b1-3)GlcNAc(b1-3)Gal(b1-4)GlcNAc(b1-6)[Gal(b1-3)GlcNAc(b1-3)]Gal(b1-4)Glc
Procedure, shortened: as §1

[29] = target: Gal(b1-3)GlcNAc(b1-3)Gal(b1-4)[Fuc(a1-3)]GlcNAc
Procedure, shortened: as §1

[30] = target: Gal(b1-3)GlcNAc(b1-3)Gal(b1-4)[Fuc(a1-3)]GlcNAc(b1-6)[Gal(b1-3)GlcNAc(b1-3)]Gal(b1-4)Glc
Procedure, shortened: as §1

[31] = target: Gal(b1-3)GlcNAc(b1-3)GalNAc
Procedure, shortened: as §1

[32] = target: Gal(b1-3)GlcNAc(b1-6)Gal(b1-4)GlcNAc
Procedure, shortened: as §1

B1: LgFlo1 (Saccharomyces pastorianus), B3IUA8 (protein)
chain: SGSTQACLPVGSRKNGMNVNFYKYSLQDSTTYSDPQYMAYKYSDTKKLGSVSGQTHLSIYYGPNTAFWNTASWSSDLFGFYTTPTNVTVEMTGYFLPPQTGSYTFKFATVDDSAILSVGGSIAFECCAQEQPPITSTDFTINGIKPWDAATPTDIKGSTYMYAGYYYPIKIVYSNAKALARLPVSVVLPDGTEVNDDFEGYVYSFDDDLSQSNCTIPDPSKHTTS
glycan array binding signal (z-score) (Gal(a1-3)Gal(b1-4)GlcNAc): -0.305
glycan array binding signal (z-score) [1]: -0.278
glycan array binding signal (z-score) [2]: 0.385
glycan array binding signal (z-score) [3]: -0.146
glycan array binding signal (z-score) [4]: -0.328
glycan array binding signal (z-score) [5]: -0.122
glycan array binding signal (z-score) [6]: 1.76
glycan array binding signal (z-score) (Gal(a1-3)GalNAc): -0.152
glycan array binding signal (z-score) [7]: -0.248
glycan array binding signal (z-score) [8]: 1.89
glycan array binding signal (z-score) (Gal(a1-4)Gal(b1-4)Glc): -0.283
glycan array binding signal (z-score) (Gal(a1-4)Gal(b1-4)GlcNAc): -0.329
glycan array binding signal (z-score) [9]: 1.67
glycan array binding signal (z-score) [10]: -0.425
glycan array binding signal (z-score) (Gal(a1-4)GlcNAc): -0.471
glycan array binding signal (z-score) (Gal(a1-6)Glc): 0.139
glycan array binding signal (z-score) (Gal(b1-2)Gal): 0.063
glycan array binding signal (z-score) (Gal(b1-3)Gal): -0.354
glycan array binding signal (z-score) (Gal(b1-3)Gal(b1-4)GlcNAc): 0.361
glycan array binding signal (z-score) (Gal(b1-3)GalNAc): -0.044
glycan array binding signal (z-score) [11]: -0.439
glycan array binding signal (z-score) [12]: -0.346
glycan array binding signal (z-score) (Gal(b1-3)GalNAc(b1-3)Gal): -0.301
glycan array binding signal (z-score) [13]: -0.431
glycan array binding signal (z-score) [14]: -0.344
glycan array binding signal (z-score) [15]: -0.314
glycan array binding signal (z-score) (Gal(b1-3)GlcNAc): -0.216
glycan array binding signal (z-score) [16]: -0.217
glycan array binding signal (z-score) [17]: -0.315
glycan array binding signal (z-score) (Gal(b1-3)GlcNAc(b1-2)Man): -0.234
glycan array binding signal (z-score) [18]: 0.172
glycan array binding signal (z-score) [19]: 0.025
glycan array binding signal (z-score) [20]: 0.784
glycan array binding signal (z-score) [21]: 1.78
glycan array binding signal (z-score) [22]: -0.26
glycan array binding signal (z-score) [23]: -0.37
glycan array binding signal (z-score) [24]: -0.558
glycan array binding signal (z-score) [25]: -0.078
glycan array binding signal (z-score) [26]: -0.032
glycan array binding signal (z-score) [27]: 0.352
glycan array binding signal (z-score) [28]: -0.229
glycan array binding signal (z-score) [29]: -0.421
glycan array binding signal (z-score) [30]: -0.258
glycan array binding signal (z-score) [31]: -0.183
glycan array binding signal (z-score) [32]: -0.462
